Test results: PubChem BioAssay AID504706 (National Center for Advancing Translational Sciences (NCATS), 2011)
Out of some 320,000 compounds screened, about 200 (0.062%) were called active. The inconclusive results got no clear call from the source; some entries with a clear call stand among them for comparison. Calls follow the shape of the dose curve; as a rule, active = well fitted activation curve with a large enough effect; inconclusive = small, poorly fitted or top-dose-only effect; inactive = no such curve, though single readings can be large or run the other way. Potencies of inconclusive entries are left out as doubtful fits.

Assay: qHTS assay for re-activators of p53 using a Luc reporter; also: nearly all actives have a fitted effect of over 45% in size; as to activity change, positive = activation: % of control where 0% means no effect
Details: H1299 p53-A138V BP100-luciferase reporter, luminescence, 24 h; series mostly up to 92.2 µM; activity change, positive = activation: at the top concentration
In short: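 H1299 (p53-null), stable ts p53-A138V + BP100-Luc; 1000 cells/well, Opti-MEM/10% FBS; cpd 4 pt, 1:5; 24 h, 37 deg C, 5% CO2; detection reagent 10 min RT; luminescence.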
Potency is read from the fitted curve at half-maximal effect; tags tell the direction and shape of the fitted curve.

Q: For `CC1(C)C=Cc2cc3ccc(=O)oc3cc2O1`, which “activity change, positive = activation” value is on record?
A: Its value is inactive: 5.74%.

Q: For `Cc1ccc(CNC(=O)NCc2ccccc2)cc1`, which Potency is on record?
A: The Potency was inconclusive [activator, single point].

Q: Which Potency does the source give for `O=C(Nc1ccc(F)cc1F)c1cc2nc3c(c(C(F)(F)F)n2n1)CCCC3` here?
A: The Potency was inconclusive [activator, full curve, poor fit].

Q: Which Potency does the source give for `COC(=O)CCC(=O)N1CCCC(N2CCN(c3ccc(OC)cc3)CC2)C1` (stereo unspecified) here?
A: The Potency was inconclusive [activator, single point].

Q: With `CCCOc1ccc(C2C(C(=O)c3cc4ccccc4o3)=C(O)C(=O)N2c2cc(C)on2)cc1` (stereo unspecified) as the molecule, how does the “activity change, positive = activation” value read?
A: The value was inactive: 0.828%.

Q: Which “activity change, positive = activation” value does the source give for `C=CCn1c(N)c(C(=O)NCCC2=CCCCC2)sc1=S` here?
A: The value was inactive: 24.9%.

Q: With `N/C(=N\OC(=O)c1cccc2ccccc12)c1ccncc1` as the molecule, how does the Potency read?
A: Its Potency is inconclusive [activator, full curve, poor fit].

Q: Which Potency does the source give for `N#C/C(=C\c1cccc(O)c1)C(=O)N1CCCCC1` here?
A: The Potency was inconclusive [activator, partial curve, poor fit].

Q: Which “activity change, positive = activation” value does the source give for `COc1ccccc1Nc1nc(-c2c(C)nc3ncccn23)cs1` here?
A: Its value is inactive: 0.515%.

Q: For `CCCCn1c(-c2ccc(Cl)cc2)nc2c(=O)n(C)c(=O)[nH]c21`, which Potency is on record?
A: The Potency was inconclusive [activator, partial curve, poor fit].

Q: Which Potency does the source give for `N/C(=N\OC(=O)c1ccc(Cl)cc1)c1cccnc1` here?
A: Its Potency is inconclusive [activator, partial curve, poor fit].

Q: For `CN(C)CCCNc1oc(-c2ccc(Cl)cc2)nc1C#N`, which “activity change, positive = activation” value is on record?
A: The value was inactive: 12%.

Q: Which Potency does the source give for `CC(C)(C)c1cc(C(=S)N2CCCC2)cc(C(C)(C)C)c1O` here?
A: The Potency was inconclusive [activator, partial curve, poor fit].

Q: With `CSc1ncccc1C(=O)OCc1ccccc1` as the molecule, how does the Potency read?
A: Its Potency is inconclusive [activator, partial curve, poor fit].

Q: For `COc1cnc(-c2ccccn2)nc1NC(C)C`, which Potency is on record?
A: The Potency was inconclusive [activator, full curve, poor fit].

Q: Which “activity change, positive = activation” value does the source give for `O=c1/c(=C\c2ccc(F)cc2)sc2n1CCCN=2` here?
A: Its value is inactive: 13.9%.

Q: With `CCN1CCN(CCC(=O)Nc2ccc(C)cc2)CC1` as the molecule, how does the “activity change, positive = activation” value read?
A: Its value is inactive: 7.55%.

Q: Which “activity change, positive = activation” value does the source give for `C=C(Cl)COc1ccc2c(CC)cc(=O)oc2c1` here?
A: Its value is inactive: 11.8%.

Q: For `O=C(COC(=O)c1cccc(-n2cnnn2)c1)c1ccc(Br)cc1`, which Potency is on record?
A: Its Potency is inconclusive [activator, partial curve, poor fit].

Q: For `COc1cc(/C=N/NC(=O)c2cccnc2)cc2c1OCO2`, which Potency is on record?
A: Its Potency is inconclusive [activator, single point].

Q: For `CC1(C)CC(=O)C(C(C2=C(O)CC(C)(C)CC2=O)c2cccc(O)c2)C(=O)C1` (stereo unspecified), which “activity change, positive = activation” value is on record?
A: Its value is inactive: 5.05%.

Q: Which Potency does the source give for `O=C(CN1C(=O)NC2(CCCCCC2)C1=O)c1ccc(Cl)cc1` here?
A: The Potency was inconclusive [activator, partial curve, poor fit].

Q: For `Cc1cc(Br)ccc1NC(=O)CN(C)C(=O)CSC(=S)N1CCCC1`, which “activity change, positive = activation” value is on record?
A: The value was inactive: -0.52%.

Q: With `C(/CCc1ccccc1)=N\Nc1nc2ccccc2[nH]1` as the molecule, how does the Potency read?
A: The Potency was inconclusive [activator, partial curve, poor fit].

Q: Which “activity change, positive = activation” value does the source give for `O=C(NC(=S)NCCC1=CCCCC1)c1ccco1` here?
A: Its value is inactive: 6.4%.

Q: Which Potency does the source give for `O=C(N/N=C/c1ccc(Cl)cc1)c1sccc1OCc1ccc(F)cc1` here?
A: The Potency was inconclusive [activator, partial curve, poor fit].

Q: Which Potency does the source give for `O=C(NCc1cccs1)Nc1cccs1` here?
A: The Potency was inconclusive [activator, single point].

Q: For `O=C(CCNC(=O)c1ccc(Cl)cc1)NC1CCCCCC1`, which Potency is on record?
A: Its Potency is inconclusive [activator, partial curve].

Q: Which Potency does the source give for `Clc1ccc(Cl)c2sc(N3CCCC3)nc12` here?
A: The Potency was inconclusive [activator, single point].

Q: Which “activity change, positive = activation” value does the source give for `Nc1ccccc1SCC(=O)N1CCc2ccccc21` here?
A: The value was inactive: 15.8%.

Q: Which Potency does the source give for `CC(=O)c1cccc(NC(=O)c2ccc3c(c2)CCCC3)c1` here?
A: The Potency was inconclusive [activator, partial curve, poor fit].

Q: For `CCOc1cc(/C=C/C(=O)c2ccc3c(c2)OCCO3)ccc1OCC(=O)N(C)C`, which “activity change, positive = activation” value is on record?
A: Its value is inactive: -19.9%.

Q: Which Potency does the source give for `CC1(C)CC(=O)C2=C(C1)OC(N)=C(C#N)C2c1cn(-c2ccccc2)nc1-c1ccc(F)cc1` (stereo unspecified) here?
A: The Potency was inconclusive [activator, partial curve, poor fit].

Q: For `CCOC(=O)c1ccc(NC(=O)Nc2ccon2)cc1`, which Potency is on record?
A: Its Potency is inconclusive [activator, full curve].

Q: Which “activity change, positive = activation” value does the source give for `CCc1nc2c(c(=O)[nH]1)C1(CCCC1)Cc1ccccc1-2` here?
A: The value was inactive: -0.928%.

Q: Which Potency does the source give for `Fc1ccc(Br)cc1SCCc1ccncc1` here?
A: Its Potency is inconclusive [activator, single point].

Q: Which Potency does the source give for `N/C(Cc1ccc(Cl)cc1)=N\OC(=O)C1CCCCC1` here?
A: Its Potency is inconclusive [activator, partial curve].

Q: For `COc1ccc(-n2nc([N+](=O)[O-])c(=NCc3cccnc3)n2O)cc1`, which Potency is on record?
A: Its Potency is inconclusive [activator, full curve, poor fit].

Q: Which “activity change, positive = activation” value does the source give for `NNC(=O)c1ccc(Cn2cccn2)o1` here?
A: The value was inactive: 8.06%.

Q: For `O=C1/C(=C/c2cccc(Cl)c2)SC(=S)N1CCC(=O)N1CCCCC1CCO` (stereo unspecified), which Potency is on record?
A: Its Potency is inconclusive [activator, partial curve, poor fit].

Q: Which Potency does the source give for `FC(F)(F)c1cccc(-c2nc3nc(Cl)c(Cl)nc3[nH]2)c1` here?
A: Its Potency is inconclusive [activator, full curve].

Q: For `COc1ccccc1N1CCN(c2cc(=O)n(-c3ccc(Cl)cc3)c(=O)[nH]2)CC1`, which Potency is on record?
A: The Potency was inconclusive [activator, single point].

Q: Which Potency does the source give for `Cc1sc2nc(-c3cccs3)oc(=O)c2c1C` here?
A: The Potency was inconclusive [activator, full curve, poor fit].

Q: With `Cc1cccc(NC(=O)Nc2ccccc2)n1` as the molecule, how does the Potency read?
A: Its Potency is inconclusive [activator, single point].

Q: Which Potency does the source give for `COc1cc(/C=C2\Oc3cc(O)ccc3C2=O)ccc1O` here?
A: Its Potency is inconclusive [activator, partial curve, poor fit].

Q: For `O=C(NC(=S)N1CCOCC1)c1cc2ccccc2o1`, which “activity change, positive = activation” value is on record?
A: The value was inactive: 10.2%.

Q: For `C/C(=N/N=C(\C)c1ccccc1O)c1ccccc1O`, which Potency is on record?
A: The Potency was inconclusive [activator, full curve, poor fit].

Q: For `Cc1ccc(C(=O)NC(=S)NCC2CCCO2)cc1Br` (stereo unspecified), which Potency is on record?
A: Its Potency is inconclusive [activator, partial curve, poor fit].

Q: Which “activity change, positive = activation” value does the source give for `COc1cc2c(cc1NC(=O)c1ccc3c(c1)OCO3)oc1ccccc12` here?
A: Its value is inactive: 13.5%.

Q: With `O=c1[nH]c(=O)n(Cc2ccccc2)c2nc(-c3ccc(C(F)(F)F)cc3)n(CCO)c12` as the molecule, how does the Potency read?
A: The Potency was inconclusive [activator, single point].

Q: Which Potency does the source give for `COc1cccc(/C=N/NC(=O)c2c(C)nc3ccc(Cl)cn23)c1O` here?
A: The Potency was inconclusive [activator, full curve, poor fit].

Q: With `COc1ccc(C(=O)NCCSc2ccccc2C)cc1` as the molecule, how does the Potency read?
A: The Potency was inconclusive [activator, full curve].

Q: With `N/C(=N\OC(=O)c1ccccc1[N+](=O)[O-])c1cccnc1` as the molecule, how does the Potency read?
A: The Potency was inconclusive [activator, partial curve, poor fit].

Q: For `CC(C)CC(=O)Nc1ccc(C(=O)Nc2cccc(O)c2)cc1`, which “activity change, positive = activation” value is on record?
A: The value was inactive: 12.6%.

Q: For `COn1c(-c2ccccc2)nc2ccc(Cl)cc21`, which Potency is on record?
A: Its Potency is inconclusive [activator, partial curve, poor fit].

Q: With `CC(/C=C/c1ccc(O)cc1)=N/O` as the molecule, how does the Potency read?
A: The Potency was inconclusive [activator, full curve, poor fit].

Q: For `O=C(Nc1ccccc1F)Nc1ccccc1N1CCCCC1`, which “activity change, positive = activation” value is on record?
A: The value was inactive: 7.18%.

Q: Which Potency does the source give for `O=C(Nc1cccc(O)c1)c1cc(-c2ccccc2Cl)on1` here?
A: The Potency was inconclusive [activator, single point].

Q: For `Cn1c(/C=C/c2ccc(Br)cc2)nc2ccccc2c1=O`, which Potency is on record?
A: Its Potency is inconclusive [activator, full curve, poor fit].

Q: For `CCC(=O)/C=C1/Sc2ccccc2N1CC`, which Potency is on record?
A: The Potency was inconclusive [activator, full curve, poor fit].

Q: Which Potency does the source give for `COc1ccc(-c2cc3c(=O)n(CC(=O)NC4CCN(Cc5ccccc5)CC4)ncn3n2)cc1` here?
A: The Potency was inconclusive [activator, partial curve, poor fit].

Q: For `O=C(NCCc1ccccc1)C(c1cccs1)N(C(=O)c1csnn1)C1CC1` (stereo unspecified), which Potency is on record?
A: The Potency was inconclusive [activator, partial curve, poor fit].

Q: With `O=C1[C@@H]2[C@@H]3C[C@@H]([C@H]4ON=C(c5ccc(Cl)cc5)[C@@H]34)[C@@H]2C(=O)N1C1CCCCC1` as the molecule, how does the “activity change, positive = activation” value read?
A: Its value is inactive: 10.9%.

Q: Which Potency does the source give for `Cc1cc(C(=O)OCC(=O)c2ccc3c(c2)OCCO3)c(C)o1` here?
A: The Potency was inconclusive [activator, partial curve, poor fit].

Q: With `O=C(CSc1nc2ccccc2o1)Nc1nc(-c2ccccc2)cs1` as the molecule, how does the Potency read?
A: The Potency was inconclusive [activator, partial curve, poor fit].

Q: With `O=C(N/N=C/c1c(O)ccc2ccccc12)c1[nH]ncc1Br` as the molecule, how does the Potency read?
A: Its Potency is inconclusive [activator, partial curve, poor fit].

Q: Which Potency does the source give for `COc1cc(/C=C(/C#N)c2nc3ccccc3c(=O)[nH]2)ccc1O` here?
A: The Potency was inconclusive [activator, single point].

Q: Which “activity change, positive = activation” value does the source give for `Cc1sc2ncnc(NC3CCN(Cc4ccccc4)CC3)c2c1C` here?
A: Its value is inactive: 6.71%.

Q: For `CCC(=O)Nc1nnc(S(=O)(=O)N(C)c2ccccc2)s1`, which “activity change, positive = activation” value is on record?
A: Its value is inactive: -0.36%.

Q: With `Cc1cc(C)n2nc(C(=O)NNC(=O)c3ccc(Cl)cc3)nc2n1` as the molecule, how does the “activity change, positive = activation” value read?
A: The value was inactive: 4.6%.

Q: With `CCOC(=O)c1c(C)nc2sc3c(=O)n(-c4ccc(C(C)=O)cc4)nnc3c2c1-c1ccc(Cl)cc1` as the molecule, how does the “activity change, positive = activation” value read?
A: Its value is inactive: 7.83%.
